From the supplement of paper PMC3334620
In all, about 33,000 sequences were measured (“E-score (-0.5 to 0.5)”: median about -0.012, highest 2% from about 0.27 on). Some of the results follow.

target: T1, Vhr1 (UniProt P40522); assay: PBM E-score (8-mer binding enrichment) (E-score (-0.5 to 0.5)); higher = stronger / more preferred TF binding; most listed sequences are background and not binding sites; conditions: protein concentration: 200 nM; construct: GST-full length
T1 sequence: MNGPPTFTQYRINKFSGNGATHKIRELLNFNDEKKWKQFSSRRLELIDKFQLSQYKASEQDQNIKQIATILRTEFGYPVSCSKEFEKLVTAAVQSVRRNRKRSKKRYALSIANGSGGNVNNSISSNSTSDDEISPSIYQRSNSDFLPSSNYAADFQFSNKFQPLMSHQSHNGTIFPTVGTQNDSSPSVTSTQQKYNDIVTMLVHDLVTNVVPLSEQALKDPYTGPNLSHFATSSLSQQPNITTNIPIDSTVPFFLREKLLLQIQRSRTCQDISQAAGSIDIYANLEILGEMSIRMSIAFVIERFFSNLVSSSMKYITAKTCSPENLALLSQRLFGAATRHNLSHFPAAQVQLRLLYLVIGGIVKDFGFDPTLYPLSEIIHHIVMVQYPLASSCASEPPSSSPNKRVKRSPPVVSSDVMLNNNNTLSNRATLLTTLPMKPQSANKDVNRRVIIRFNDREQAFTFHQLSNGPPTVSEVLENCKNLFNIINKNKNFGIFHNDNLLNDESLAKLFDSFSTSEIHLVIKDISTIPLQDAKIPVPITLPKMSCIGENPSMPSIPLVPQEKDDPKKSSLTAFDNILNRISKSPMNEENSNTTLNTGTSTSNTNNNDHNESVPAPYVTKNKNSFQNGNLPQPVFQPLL
Outline: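 For each ungapped eight-base word taken together with its reverse complement, the Universal PBM Analysis Suite assigned an E-score. Binding data came from GST-tagged yeast transcription factors, applied at about 100-200 nM, on universal all-10-mer Agilent arrays made double-stranded by primer extension. Fluorescent anti-GST marked bound protein, and scans were normalised with masliner.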

| Sequence | PBM E-score |
| --- | --- |
| ACTCCACT | -0.032 |
| CTGCCAGA | -0.145 |
| ACAGCTTG | 0.0709 |
| CCCGAACC | 0.0864 |
| CAAACCAG | 0.0311 |
| CCTAAGCC | -0.229 |
| CACACGCA | 0.116 |
| CACACCGG | 0.147 |
| CCGGTGCG | 0.186 |
| CAGTGGTC | -0.0292 |
| GGTCCTGA | 0.0276 |
| GGTAACAC | 0.0705 |
| CCTGGTAG | -0.0901 |
| CCTTATAC | -0.0569 |
| CAGTCACG | 0.365 |
| GACTAGAC | 0.0254 |
| CAAACACG | 0.033 |
| TGCGCTAA | 0.0119 |
| GCCGTTCC | -0.0727 |
| GAAACCAC | 0.0416 |
| ACGTGCAA | -0.201 |
| GTTACGAA | -0.147 |
| CAGCCCGC | 0.0872 |
| AAACAATA | 0.119 |
| GTCTCGAA | -0.146 |

| Sequence | PBM E-score |
| --- | --- |
| AGTCTCTC | 0.0118 |
| ATTGGCAG | 0.0108 |
| CAGCAAAG | -0.0331 |
| TATCTTGA | -0.0235 |
| ACGCTGCC | -0.0387 |
| CTTGAACA | -0.209 |
| CAAGAGCC | 0.05 |
| AAGCCGGA | 0.0929 |
| AACGTCGC | -0.0398 |
| CACTGGGC | -0.162 |
| GCTAATCC | 0.0989 |
| CAAGATCG | -0.139 |
| CTGTGGAA | -0.0565 |
| CTGTAAGC | -0.0741 |
| GGTGCATA | 0.0499 |
| TTGAGAAA | -0.096 |
| GCGGACCA | 0.213 |
| ATGTAATA | 0.201 |
| TACAAGGA | 0.0172 |
| GGCTCCTA | -0.136 |
| AAATTCTT | -0.278 |
| CTTCACCC | 0.192 |
| TATCTGCA | -0.185 |
| ACCTCCCG | 0.0173 |
| AATCCGGT | 0.0561 |

| Sequence | PBM E-score |
| --- | --- |
| CAGGGGAC | -0.0275 |
| CGATGGCG | 0.00489 |
| AGCGGCAA | -0.136 |
| GAGCCCCA | -0.221 |
| AATTGAAC | -0.226 |
| CCATACAG | 0.191 |
| ACCCCTGG | -0.0378 |
| ACTATAGA | 0.0018 |
| GTCACGCA | 0.0821 |
| ACCACCGG | -0.0769 |
| CAGCAAGC | -0.0187 |
| ACTCACTC | 0.254 |
| CACCACTC | 0.0971 |
| CCATACTC | 0.155 |
| AAGTTGAA | -0.151 |
| CATTTGCA | -0.118 |
| AGAACCTA | -0.134 |
| ATGTCTCG | 0.135 |
| AGTTCAAG | -0.168 |
| ACCATCTA | -0.138 |
| GCCTATGA | -0.141 |
| AGCGCGCA | 0.189 |
| AATCCCTC | -0.164 |
| CGAGCTTC | 0.0561 |
| CCCAAGAA | -0.093 |

| Sequence | PBM E-score |
| --- | --- |
| ATAACTCG | 0.0214 |
| GTTATAAC | 0.0717 |
| ACCTTACT | -0.129 |
| TAAGGCGA | -0.239 |
| GATGGATA | 0.0867 |
| AATGCGAA | -0.0712 |
| GTACGTAA | -0.131 |
| AACAGAGT | 0.131 |
| GCCATAAA | -0.106 |
| AATCCAAT | 0.0231 |
| GGTAAACC | -0.137 |
| AAACACCT | 0.0781 |
| TATCGTGA | -0.0142 |
| AGGTGTAC | -0.0435 |
| AGTTCCAT | -0.0164 |
| GAGTACCA | 0.172 |
| GCGCTGAA | -0.203 |
| AAGAAAAA | -0.219 |
| ATGACCTG | 0.092 |
| ACGCACCG | 0.192 |
| CGTTGCGA | 0.0286 |
| CTACTGAG | 0.0769 |
| TCCAAAGA | -0.0349 |
| CCTCAATA | -0.0536 |
| ATTACTGA | 0.0126 |

| Sequence | PBM E-score |
| --- | --- |
| AAGATGTG | 0.0243 |
| ACGCCCAC | 0.0539 |
| GGACTACC | 0.00048 |
| GGTTGTGA | 0.143 |
| GGCGTCTA | -0.208 |
| TTAGACAA | -0.116 |
| TAGCTTAA | -0.043 |
| ACTATGCA | 0.188 |
| TAATATAA | 0.249 |
| GAAGCGCC | 0.00289 |
| GCTGACTA | 0.324 |
| GACGCAAA | 0.0593 |
| AAGGATGC | -0.241 |
| CCTGCTAG | -0.101 |
| ACATCTCG | -0.0449 |
| AGGCATTC | -0.154 |
| AATGAGTG | 0.157 |
| ATGCGGTC | -0.0122 |
| CTGATCGC | -0.0109 |
| AAGAATCC | -0.0882 |
| CCATGCGA | 0.0318 |
| CCCGCCCC | 0.329 |
| ATCACTAA | -0.0231 |
| ACAGGCGC | -0.173 |
| AGCAGAAG | 0.0736 |

| Sequence | PBM E-score |
| --- | --- |
| GAAGGATA | -0.0495 |
| AAATTATC | -0.00042 |
| CGTTTGAC | -0.0627 |
| GACGTAAC | -0.0416 |
| GTGTAGGA | 0.115 |
| AGATTGAC | 0.241 |
| CGAGTCAC | 0.467 |
| CCGCGAGA | -0.0874 |
| GAGCGCAA | -0.221 |
| TCGTATCA | 0.064 |
| GCGGGTTA | 0.137 |
| CGCTCCGC | -0.0695 |
| CCAGCACA | -0.0321 |
| TAGGCTAA | -0.169 |
| GTAGTGAA | -0.035 |
| GAACAAAA | 0.0736 |
| TCTTTGAA | -0.151 |
| CACTATCA | 0.111 |
| ATTTCTAG | -0.259 |
| ACCCAGGA | -0.00244 |
| CCCACATA | 0.107 |
| CAGTTCAA | 0.00019 |
| AACCAAAA | 0.0587 |
| ATCCTTTA | 0.00087 |
| ATTTATGA | 0.101 |

| Sequence | PBM E-score |
| --- | --- |
| ACGGTTAA | -0.0459 |
| ATGATCGG | 0.0799 |
| GTGTATGA | 0.156 |
| AGAGGTAT | 0.144 |
| CACGCGAA | -0.0722 |
| CACAAGTG | -0.144 |
| AATCTGCA | 0.0587 |
| TAAGTCTA | -0.165 |
| GCACTGAA | -0.0863 |
| ATCAGCTC | 0.0903 |
| ATGTAGTA | 0.0473 |
| CGGCCCCC | -0.109 |
| CTTTAGGA | -0.0625 |
| TGTTGAAA | -0.0954 |
| CTAACCCA | 0.205 |
| TGTGAGAA | 0.0282 |
| TCCACCCA | 0.111 |
| GAGAGTCA | 0.43 |
| ACGGGATC | 0.0824 |
| CAGCACGA | 0.128 |
| GAACGGCA | 0.0247 |
| GCCGCTAC | 0.028 |
| AGTATGTG | 0.224 |
| CACGTAAC | -0.0713 |
| GGGATTTA | -0.29 |

| Sequence | PBM E-score |
| --- | --- |
| ATGAGCTA | 0.101 |
| AAGCTGTG | -0.00453 |
| ACCATCAT | 0.209 |
| GTTAAATA | -0.176 |
| AATCCTAC | -0.159 |
| CATCAAGC | 0.00939 |
| AGTCCAGC | -0.0848 |
| ATTCGGCA | -0.0363 |
| CCATAACA | 0.121 |
| AGTCTTAA | -0.136 |
| ATTTCTAA | -0.352 |
| AGCGCGAC | 0.0938 |
| CCCAGAAC | -0.00576 |
| ATTGGGTC | 0.0626 |
| CTAGCTAA | 0.0696 |
| ACCGCTCG | 0.0855 |
| GTTGAGTA | 0.147 |
| CGGAGTTC | 0.0825 |
| AATTGTGA | -0.00733 |
| AGTCCCAA | 0.0517 |
| CGATTCCA | 0.0812 |
| AACATTCC | -0.195 |
| AACCTTTG | -0.194 |
| GGCCGCCC | 0.0955 |
| GGTTAACC | 0.152 |

| Sequence | PBM E-score |
| --- | --- |
| AAGCGTCA | -0.0962 |
| ATGAAACC | 0.137 |
| CGAGGTTC | 0.0424 |
| AGGTTACC | 0.0706 |
| GTCGCAAA | 0.0617 |
| ATCCTCTC | -0.133 |
| GGGAGGCA | -0.0882 |
| ACAAAGAT | -0.061 |
| AGGCTGTA | -0.0542 |
| CGTACCCC | 0.225 |
| CGTTCCGA | -0.0715 |
| ACCCTACG | -0.0219 |
| AGTCATAC | 0.407 |
| ACCGGGAT | 0.168 |
| GCACATCC | 0.116 |
| CCACAACA | 0.00513 |
| ACACCGGT | -0.0115 |
| ACATGGAA | 0.0558 |
| CGACCAGC | 0.0387 |
